The values that follow come from ChEMBL document CHEMBL4888484, “Replenishing the malaria drug discovery pipeline: Screening and hit evaluation of the MMV Hit Generation Library 1 (HGL1) against asexual blood stage Plasmodium falciparum ,using a nano luciferase reporter read-out” (2022).

The whole screen tested about 150,000 compounds, of which about 540 (0.36%) showed an effect of 50% or more. The list shows a part of the results.

This assay deals with Plasmodium falciparum. The experiment in a line: Primary screen in NF54 nanoGlo assay, in single point, at 2uM, 72h; a lower Z score goes with more inhibition. It is filed as functional, Erythrocyte. Particulars: timepoint 72 hour.
For the compound `COc1cccc(CNC(=O)COCC(=O)Nc2ccccc2)c1`, the “% Inhibition” value is listed as -2% and the Z score was determined as 0.29.

In the case of `O=S(=O)(c1ccc(F)cc1)N1CC(N2CC(F)(F)C[C@H]2COCc2ccccc2)C1`, the “% Inhibition” value is recorded as -20% and the Z score stood at 2.31.

Take `CC(C)(C)c1ccc(Cn2c(C(=O)NCc3ccco3)cc3cc(NC(=O)c4ccc(C(C)(C)C)cc4)ccc32)cc1`: the “% Inhibition” value came to 8% and the Z score was -0.94.

Take `Cc1ccc(CN(CCO)CCn2cc[nH]c2=O)s1`: the “% Inhibition” value is recorded as 2% and the Z score was -0.35.

On to `COc1cccc(C(=O)N2CCN(C(=O)c3ccc(=O)n(C)c3)CC2)c1`, for which the “% Inhibition” value is reported as -2% and the Z score was found to be 0.35.

Consider `C=CCOc1cccc(NC2CCOCC2)c1`, for which the “% Inhibition” value is -13% and the Z score is 1.2.

On to `CC(C)c1csc(C(=O)N2CCC(CNC(=O)c3ccnnc3)CC2)n1`, for which the “% Inhibition” value is given as -14% and the Z score turned out to be 1.22.

For `O=C(NCCc1ccsc1)c1ncoc1C(F)(F)F`, the “% Inhibition” value worked out at 1% and the Z score is -0.2.

As for `CNC(=O)CCCC(=O)N1CCCC1C1CCCc2ccccc21` (stereo not drawn), the “% Inhibition” value is listed as -5% and the Z score is reported as 0.69.

On to `CCOCCN1CC[C@@]2(CCCN(Cc3cc(OC)ccc3F)C2)C1`, for which the “% Inhibition” value was determined as 4% and the Z score is -0.78.

Consider `Cc1ccc(CNC2CCN(S(=O)(=O)C(C)C)CC2C)o1` (stereo not drawn), for which the “% Inhibition” value was 0% and the Z score is reported as -0.03.

As for `CCn1ccc(C(=O)N2CCOc3ccc(CN4CCOCC4)cc3C2)n1`, the “% Inhibition” value came out at 11% and the Z score is recorded as -2.19.

Consider `Cc1cccnc1C1CCCC(Nc2ccc(CNC(N)=O)cc2)C1` (stereo not drawn), for which the “% Inhibition” value is listed as -8% and the Z score is 0.84.

As for `O=C(Cc1ccon1)N(Cc1ccccc1)CC1(O)CCCC1`, the “% Inhibition” value is on record as 11% and the Z score is reported as -1.39.

As for `CCNC(=O)[C@H]1CCN(S(=O)(=O)c2ccc3[nH]c(=O)n(C)c(=O)c3c2)C1`, the “% Inhibition” value is given as -11% and the Z score is given as 1.57.

On to `CC1CN(C)CCN1C(=O)C1CC1c1ccco1` (stereo not drawn), for which the “% Inhibition” value is on record as -8% and the Z score is reported as 1.06.

As to `Cc1cccc(NC(=O)C(Nc2cccc(C)c2)(c2ccccc2)c2ccccc2)c1`, the “% Inhibition” value is given as -8% and the Z score was found to be 1.06.

As to `O=C(N[C@@H](Cc1ccccc1)C(=O)O)C1CCOC1` (stereo partly drawn), the “% Inhibition” value is reported as -7% and the Z score was determined as 0.88.

Regarding `Cc1cc(Cl)cc2c1NC(=O)C21NC(CCC(N)=O)[C@H]2C(=O)N(Cc3ccccc3Cl)C(=O)[C@H]21` (stereo partly drawn), the “% Inhibition” value is given as 8% and the Z score is on record as -1.

For the compound `COc1cc(=O)n(-c2ccccc2)cc1C(=O)N1CC(Oc2cc(C)n(C3CC3)c(=O)c2)C1`, the “% Inhibition” value is given as -6% and the Z score is 0.97.

Turning to `c1ccc(CN2CCC[C@H]2c2nc(-c3ccncc3)no2)cc1`, the “% Inhibition” value worked out at 17% and the Z score is listed as -2.2.

Take `Cn1c(N2CCOCC2)nc2cc(-c3nc([C@H]4CCOC4)no3)ccc21`: the “% Inhibition” value is on record as -21% and the Z score came out at 2.11.

Regarding `COc1cc2c(cc1OC)CN(C(=O)Cn1cnc3ccccc3c1=O)CC2`, the “% Inhibition” value is reported as -6% and the Z score was 0.94.

As for `CS(=O)(=O)CCOc1ccc(Cl)cc1NC1CCCC1`, the “% Inhibition” value worked out at 6% and the Z score is reported as -0.65.

Take `CC(C)(CNC(=O)c1cnc[nH]1)C1(O)CCCC1`: the “% Inhibition” value is given as -8% and the Z score came out at 1.43.

For `O=C(NCc1cccnc1)[C@H]1CCCN(S(=O)(=O)c2ccc3ccccc3c2)C1`, the “% Inhibition” value is listed as -7% and the Z score is on record as 1.46.

For the compound `CN(C)S(=O)(=O)N1CCC2(CCC(=O)N(CCc3ccccn3)C2)CC1`, the “% Inhibition” value is recorded as -12% and the Z score is listed as 1.7.

For the compound `Cc1ccc(-c2noc(-c3ccc(CS(=O)(=O)Cc4ccccc4C)o3)n2)cc1`, the “% Inhibition” value is given as -2% and the Z score was found to be 0.29.

For `CN1CCC2(CC1)CCN(C(=O)c1ccccc1-c1ccccc1)C2`, the “% Inhibition” value is given as -5% and the Z score is given as 0.74.

In the case of `C[C@H](NC(=O)c1cc(Br)c[nH]1)C1CC1`, the “% Inhibition” value is recorded as -6% and the Z score came out at 0.86.

Regarding `CCn1c(-c2cc(NC(=O)COC)[nH]n2)c(C)c2ccccc21`, the “% Inhibition” value is listed as 4% and the Z score is listed as -0.52.

As to `CC(C)N(C)c1cccc(NC(=O)N(C)CCc2cnccn2)c1`, the “% Inhibition” value is listed as -7% and the Z score is reported as 1.01.

`C[C@](O)(CNC(=O)NCCc1ccsc1)c1ccc(F)cc1`: the “% Inhibition” value is given as -4% and the Z score was found to be 0.44.

Consider `COCCNc1nc(-c2ccc(C#N)cc2)cc(C(C)(C)C)n1`, for which the “% Inhibition” value was -16% and the Z score turned out to be 1.44.

Take `Cc1cn(C)c(=O)n(Cc2nc(C(F)(F)F)cs2)c1=O`: the “% Inhibition” value was -2% and the Z score was 0.29.

As for `CC(C)c1ccc(N2CC[C@H](CN(C)C)C2)nn1`, the “% Inhibition” value was -4% and the Z score is given as 0.45.

In the case of `O=C1CCCCCN1CC(=O)N1CCc2ccccc2C1`, the “% Inhibition” value is on record as -7% and the Z score came to 0.97.

Turning to `CC(C)CNC(=O)CCc1c(-c2ccc(Cl)cc2)nc2ccc(-c3ccccc3)cn12`, the “% Inhibition” value came to 3% and the Z score is given as -0.5.

For `CC(C)N(C1CC1)S(=O)(=O)c1ccc2c(c1)OCCCO2`, the “% Inhibition” value is listed as -2% and the Z score is 0.25.

Turning to `COc1ccc(N2CCN(CN3CC(=O)N(C(C)C)C3=O)CC2)cc1`, the “% Inhibition” value turned out to be 2% and the Z score is recorded as -0.3.

On to `CCN(CC)C(=O)c1cnn(-c2nccc(-c3cc(C)sc3C)n2)c1C`, for which the “% Inhibition” value was -19% and the Z score is 2.55.

On to `O=C(Nc1ccc2oc(-c3cccc(Cl)c3Cl)nc2c1)c1cccc2ccccc12`, for which the “% Inhibition” value is on record as 0% and the Z score is given as 0.05.

Take `Cc1nnc(NC(=O)c2ccccc2-c2ccccc2)s1`: the “% Inhibition” value turned out to be 2% and the Z score is reported as -0.28.

As for `COc1cccc(Cn2nnc3cc(C(=O)Nc4ccc(OC)c(Cl)c4)ccc32)c1`, the “% Inhibition” value is -15% and the Z score is 1.56.

As to `Cc1c(Cl)cccc1NC(=O)Cn1nc2c(N3CCCC3)nc3ccccc3n2c1=O`, the “% Inhibition” value is listed as -10% and the Z score came to 1.46.

For `Cn1cc([C@H](CC(N)=O)c2c(Cc3cc(F)c(F)cc3F)[nH][nH]c2=O)cn1`, the “% Inhibition” value is -1% and the Z score is 0.19.

Turning to `O=C(NC(c1ccccc1)[C@H]1C[C@@H](O)C1)c1ccc(Cn2ccnc2)o1` (stereo partly drawn), the “% Inhibition” value is reported as -11% and the Z score is given as 1.86.

With `CC[C@H](C)CCNC(=O)N(C)Cc1ccc2ccccc2n1`, the “% Inhibition” value is -7% and the Z score is given as 1.3.

Regarding `Clc1cccc(CNc2nc(-c3ccccc3)no2)c1`, the “% Inhibition” value is listed as -16% and the Z score came to 1.39.

Take `FC1(F)CN[C@H](c2nc(-c3ccccc3)no2)C1`: the “% Inhibition” value worked out at 8% and the Z score is given as -1.4.

Consider `Cc1ncccc1-n1cccc1C(=O)NCc1ccc(Cl)cc1`, for which the “% Inhibition” value is recorded as 2% and the Z score was -0.21.

`CC(C)[C@@H]1CN(C(=O)c2ncccc2O)CCCN1CC1CC1`: the “% Inhibition” value was -10% and the Z score turned out to be 1.44.

Take `COc1cccc(C(=O)NCc2ccc(-c3nc(C4CC4)no3)s2)c1`: the “% Inhibition” value came to 2% and the Z score was -0.29.

As for `Cc1cnc(CC[C@H]2CCCN2C(=O)CCn2ccnc2)n1C`, the “% Inhibition” value is given as 34% and the Z score was -4.61.
